Laboratory results reported in the supplement of paper PMC8728848.
The other results are listed elsewhere or left out.

Tests used:
Assay in all cases: glycan array binding signal (z-score within array); higher = stronger binding
Settings in all cases: glycan notation: IUPAC condensed, linker removed
Gal(a1-3)Gal(b1-3)GlcNAc = biological target: Gal(a1-3)Gal(b1-3)GlcNAc
Summary of the method: (§1)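 The binding signal is a Z-score computed within each array and averaged over linkers. Arrays of the same protein sequence at different concentrations or buffers were also averaged together. Data originate from 3228 arrays in the Consortium for Functional Glycomics database, kept only where the protein sequence was available.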

[1] = biological target: Gal(a1-3)Gal(b1-3)GlcNAc(b1-2)Man(a1-3)[Gal(a1-3)Gal(b1-3)GlcNAc(b1-2)Man(a1-6)]Man(b1-4)GlcNAc(b1-4)GlcNAc
Summary of the method: as §1

[2] = biological target: Gal(a1-3)Gal(b1-3)GlcNAc(b1-3)GalNAc
Summary of the method: as §1

[3] = biological target: Gal(a1-3)Gal(b1-3)GlcNAc(b1-6)GalNAc
Summary of the method: as §1

[4] = biological target: Gal(a1-3)Gal(b1-3)[Fuc(a1-4)]GlcNAc(b1-2)Man(a1-3)[Gal(a1-3)Gal(b1-3)[Fuc(a1-4)]GlcNAc(b1-2)Man(a1-6)]Man(b1-4)GlcNAc(b1-4)GlcNAc
Summary of the method: as §1

Gal(a1-3)Gal(b1-4)Glc = biological target: Gal(a1-3)Gal(b1-4)Glc
Summary of the method: as §1

Gal(a1-3)Gal(b1-4)GlcNAc = biological target: Gal(a1-3)Gal(b1-4)GlcNAc
Summary of the method: as §1

[5] = biological target: Gal(a1-3)Gal(b1-4)GlcNAc(b1-3)GalNAc
Summary of the method: as §1

[6] = biological target: Gal(a1-3)Gal(b1-4)GlcNAc(b1-6)GalNAc
Summary of the method: as §1

[7] = biological target: Gal(a1-3)Gal(b1-4)[Fuc(a1-3)]GlcNAc
Summary of the method: as §1

[8] = biological target: Gal(a1-3)Gal(b1-4)[Fuc(a1-3)]GlcNAc(b1-2)Man(a1-3)[Gal(a1-3)Gal(b1-4)[Fuc(a1-3)]GlcNAc(b1-2)Man(a1-6)]Man(b1-4)GlcNAc(b1-4)GlcNAc
Summary of the method: as §1

Gal(a1-3)GalNAc = biological target: Gal(a1-3)GalNAc
Summary of the method: as §1

[9] = biological target: Gal(a1-3)[Gal(a1-4)]Gal(b1-4)GlcNAc
Summary of the method: as §1

[10] = biological target: Gal(a1-4)Gal(b1-3)GlcNAc(b1-2)Man(a1-3)[Gal(a1-4)Gal(b1-3)GlcNAc(b1-2)Man(a1-6)]Man(b1-4)GlcNAc(b1-4)GlcNAc
Summary of the method: as §1

Gal(a1-4)Gal(b1-4)Glc = biological target: Gal(a1-4)Gal(b1-4)Glc
Summary of the method: as §1

Gal(a1-4)Gal(b1-4)GlcNAc = biological target: Gal(a1-4)Gal(b1-4)GlcNAc
Summary of the method: as §1

[11] = biological target: Gal(a1-4)Gal(b1-4)GlcNAc(b1-2)Man(a1-3)[Gal(a1-4)Gal(b1-4)GlcNAc(b1-2)Man(a1-6)]Man(b1-4)GlcNAc(b1-4)GlcNAc
Summary of the method: as §1

[12] = biological target: Gal(a1-4)Gal(b1-4)GlcNAc(b1-3)Gal(b1-4)Glc
Summary of the method: as §1

Gal(a1-4)GlcNAc = biological target: Gal(a1-4)GlcNAc
Summary of the method: as §1

Gal(a1-6)Glc = biological target: Gal(a1-6)Glc
Summary of the method: as §1

Gal(b1-2)Gal = biological target: Gal(b1-2)Gal
Summary of the method: as §1

Gal(b1-3)Gal = biological target: Gal(b1-3)Gal
Summary of the method: as §1

Gal(b1-3)Gal(b1-4)GlcNAc = biological target: Gal(b1-3)Gal(b1-4)GlcNAc
Summary of the method: as §1

[13] = biological target: Gal(b1-3)Gal(b1-4)GlcNAc(b1-2)Man(a1-3)[Gal(b1-3)Gal(b1-4)GlcNAc(b1-2)Man(a1-6)]Man(b1-4)GlcNAc(b1-4)GlcNAc
Summary of the method: as §1

Gal(b1-3)GalNAc = biological target: Gal(b1-3)GalNAc
Summary of the method: as §1

[14] = biological target: Gal(b1-3)GalNAc(a1-3)[Fuc(a1-2)]Gal(b1-4)Glc
Summary of the method: as §1

[15] = biological target: Gal(b1-3)GalNAc(a1-3)[Fuc(a1-2)]Gal(b1-4)GlcNAc
Summary of the method: as §1

[16] = biological target: Gal(b1-3)GalNAc(b1-3)Gal(a1-4)Gal(b1-4)Glc
Summary of the method: as §1

[17] = biological target: Gal(b1-3)GalNAc(b1-4)Gal(b1-4)Glc
Summary of the method: as §1

[18] = biological target: Gal(b1-3)GalNAc(b1-4)[Neu5Ac(a2-3)]Gal(b1-4)Glc
Summary of the method: as §1

Gal(b1-3)GlcNAc = biological target: Gal(b1-3)GlcNAc
Summary of the method: as §1

[19] = biological target: Gal(b1-3)GlcNAc(a1-3)Gal(b1-4)GlcNAc
Summary of the method: as §1

[20] = biological target: Gal(b1-3)GlcNAc(a1-6)Gal(b1-4)GlcNAc
Summary of the method: as §1

[21] = biological target: Gal(b1-3)GlcNAc(b1-2)Man(a1-3)[Gal(b1-3)GlcNAc(b1-2)Man(a1-6)]Man(b1-4)GlcNAc(b1-4)GlcNAc
Summary of the method: as §1

[22] = biological target: Gal(b1-3)GlcNAc(b1-2)Man(a1-3)[Gal(b1-3)GlcNAc(b1-2)Man(a1-6)]Man(b1-4)GlcNAc(b1-4)[Fuc(a1-6)]GlcNAc
Summary of the method: as §1

[23] = biological target: Gal(b1-3)GlcNAc(b1-2)Man(a1-3)[GlcNAc(b1-4)][Gal(b1-3)GlcNAc(b1-2)Man(a1-6)]Man(b1-4)GlcNAc(b1-4)GlcNAc
Summary of the method: as §1

[24] = biological target: Gal(b1-3)GlcNAc(b1-2)[Gal(b1-3)GlcNAc(b1-6)]Man(a1-6)[Gal(b1-3)GlcNAc(b1-2)Man(a1-3)]Man(b1-4)GlcNAc(b1-4)GlcNAc
Summary of the method: as §1

[25] = biological target: Gal(b1-3)GlcNAc(b1-3)Gal(b1-3)GlcNAc
Summary of the method: as §1

[26] = biological target: Gal(b1-3)GlcNAc(b1-3)Gal(b1-4)Glc
Summary of the method: as §1

[27] = biological target: Gal(b1-3)GlcNAc(b1-3)Gal(b1-4)GlcNAc
Summary of the method: as §1

[28] = biological target: Gal(b1-3)GlcNAc(b1-3)Gal(b1-4)GlcNAc(b1-6)[Gal(b1-3)GlcNAc(b1-3)]Gal(b1-4)Glc
Summary of the method: as §1

[29] = biological target: Gal(b1-3)GlcNAc(b1-3)Gal(b1-4)[Fuc(a1-3)]GlcNAc(b1-6)[Gal(b1-3)GlcNAc(b1-3)]Gal(b1-4)Glc
Summary of the method: as §1

[30] = biological target: Gal(b1-3)GlcNAc(b1-3)GalNAc
Summary of the method: as §1

[31] = biological target: Gal(b1-3)GlcNAc(b1-6)Gal(b1-4)GlcNAc
Summary of the method: as §1

[32] = biological target: Gal(b1-3)GlcNAc(b1-6)GalNAc
Summary of the method: as §1

B1: CIH1 (Colletotrichum higginsianum) (protein)
chain: LPQATPTTPTPTSASAAATISATSSPTCSPGPVIDYTVVSGDTLTIISQRFSSGICNIADASGITNPNFLSLGQVLQVPTYVCTPDNTSCLAKEGSDTCVEGGPATHTIVAGDTFFLVAQSLGLDVNALLAANEGVDPLLLQIGDVINIPVC
glycan array binding signal (z-score) (Gal(a1-3)Gal(b1-3)GlcNAc): -0.061
glycan array binding signal (z-score) [1]: -0.062
glycan array binding signal (z-score) [2]: -0.069
glycan array binding signal (z-score) [3]: -0.046
glycan array binding signal (z-score) [4]: -0.063
glycan array binding signal (z-score) (Gal(a1-3)Gal(b1-4)Glc): -0.076
glycan array binding signal (z-score) (Gal(a1-3)Gal(b1-4)GlcNAc): -0.069
glycan array binding signal (z-score) [5]: -0.067
glycan array binding signal (z-score) [6]: -0.053
glycan array binding signal (z-score) [7]: -0.064
glycan array binding signal (z-score) [8]: 0.011
glycan array binding signal (z-score) (Gal(a1-3)GalNAc): -0.072
glycan array binding signal (z-score) [9]: -0.085
glycan array binding signal (z-score) [10]: -0.053
glycan array binding signal (z-score) (Gal(a1-4)Gal(b1-4)Glc): -0.078
glycan array binding signal (z-score) (Gal(a1-4)Gal(b1-4)GlcNAc): -0.075
glycan array binding signal (z-score) [11]: -0.06
glycan array binding signal (z-score) [12]: -0.068
glycan array binding signal (z-score) (Gal(a1-4)GlcNAc): -0.052
glycan array binding signal (z-score) (Gal(a1-6)Glc): -0.08
glycan array binding signal (z-score) (Gal(b1-2)Gal): -0.06
glycan array binding signal (z-score) (Gal(b1-3)Gal): -0.072
glycan array binding signal (z-score) (Gal(b1-3)Gal(b1-4)GlcNAc): -0.048
glycan array binding signal (z-score) [13]: -0.058
glycan array binding signal (z-score) (Gal(b1-3)GalNAc): -0.072
glycan array binding signal (z-score) [14]: -0.059
glycan array binding signal (z-score) [15]: -0.065
glycan array binding signal (z-score) [16]: -0.071
glycan array binding signal (z-score) [17]: -0.063
glycan array binding signal (z-score) [18]: -0.047
glycan array binding signal (z-score) (Gal(b1-3)GlcNAc): -0.051
glycan array binding signal (z-score) [19]: -0.07
glycan array binding signal (z-score) [20]: -0.089
glycan array binding signal (z-score) [21]: -0.028
glycan array binding signal (z-score) [22]: -0.06
glycan array binding signal (z-score) [23]: -0.067
glycan array binding signal (z-score) [24]: -0.068
glycan array binding signal (z-score) [25]: -0.076
glycan array binding signal (z-score) [26]: -0.034
glycan array binding signal (z-score) [27]: -0.063
glycan array binding signal (z-score) [28]: -0.047
glycan array binding signal (z-score) [29]: -0.057
glycan array binding signal (z-score) [30]: -0.06
glycan array binding signal (z-score) [31]: -0.064
glycan array binding signal (z-score) [32]: -0.061
